# This is one part of the list.
# B1: Eap (Staphylococcus aureus), A0A7L5PYT7 (protein)
# chain: MKFKSLITTTLALGVLASTGANFNNNEAAAAAKPLDKSSSSLHHGYSKVHVPYAITVNGTSQNILSSLTFNKNQNISYKDLEDRVKSVLKSDRGISDIDLRLSKQAKYTVYFKNGTKKVIDLKAGIYTADLINTSEIKAININVDTKKQVEDKKKDKANYQVPYTITVNGTSQNILSNLTFNKNQNISYKDLEDKVKSVLESNRGITDVDLRLSKQAKYTVNFKNGTKKVIDLKSGIYTANLINSSDIKSININVDTKKHIENKAKRNYQVPYSINLNGTSTNILSNLSFSNKPWTNYKNLTSQIKSVLKHDRGISEQDLKYAKKAYYTVYFKNGGKRILQLNSKNYTANLVHAKDVKRIEITVKTGTKAKADRYVPYTIAVNGTSTPILSDLKFTGDPRVGYKDISKKVKSVLKHDRGIGERELKYAKKATYTVHFKNGTKKVININSNISQLNLLYVQDIKKIDIDVKTGTKAKADSYVPYTIAVNGTSTPILSKLKISNKQLISYKYLNDKVKSVLKSERGISDLDLKFAKQAKYTVYFKNGKKQVVNLKSDIFTPNLFSAKDIKKIDIDVKQYTKSKKNK
# Key:
# Experiment in all cases: glycan array binding signal (z-score within array); higher = stronger binding
# Conditions in all cases: glycan notation: IUPAC condensed, linker removed
# Glc(a1-4)Glc = target: Glc(a1-4)Glc
# How it was run: (§1)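 Negative Z-scores can be read as non-binding. The Z-score is calculated within each array and then averaged across arrays of one protein sequence at different concentrations or buffers and across linkers. Arrays, 3228 in all, were curated from the Consortium for Functional Glycomics database and kept only where the protein sequence was available.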
# Glc(a1-6)Glc(a1-6)Glc = target: Glc(a1-6)Glc(a1-6)Glc
# How it was run: as §1
# Glc(b1-4)Glc = target: Glc(b1-4)Glc
# How it was run: as §1
# Glc(b1-6)Glc = target: Glc(b1-6)Glc
# How it was run: as §1
# GlcA(b1-3)Gal = target: GlcA(b1-3)Gal
# How it was run: as §1
# GlcA(b1-3)GlcNAc = target: GlcA(b1-3)GlcNAc
# How it was run: as §1
# GlcA(b1-6)Gal = target: GlcA(b1-6)Gal
# How it was run: as §1
# [1] = target: GlcNAc(a1-3)Gal(b1-4)GlcNAc
# How it was run: as §1
# [2] = target: GlcNAc(a1-4)Gal(b1-3)GlcNAc
# How it was run: as §1
# [3] = target: GlcNAc(a1-4)Gal(b1-4)GalNAc
# How it was run: as §1
# [4] = target: GlcNAc(a1-4)Gal(b1-4)GlcNAc
# How it was run: as §1
# [5] = target: GlcNAc(a1-4)Gal(b1-4)GlcNAc(b1-3)Gal(b1-4)Glc
# How it was run: as §1
# [6] = target: GlcNAc(a1-4)Gal(b1-4)GlcNAc(b1-3)Gal(b1-4)GlcNAc
# How it was run: as §1
# [7] = target: GlcNAc(a1-4)Gal(b1-4)GlcNAc(b1-3)Gal(b1-4)GlcNAc(b1-3)Gal(b1-4)GlcNAc
# How it was run: as §1
# [8] = target: GlcNAc(a1-4)Gal(b1-4)GlcNAc(b1-3)Gal(b1-4)[Fuc(a1-3)]GlcNAc(b1-3)Gal(b1-4)[Fuc(a1-3)]GlcNAc
# How it was run: as §1
# [9] = target: GlcNAc(a1-6)Gal(b1-4)GlcNAc
# How it was run: as §1
# [10] = target: GlcNAc(b1-2)Gal(b1-3)GalNAc
# How it was run: as §1
# [11] = target: GlcNAc(b1-2)Man(a1-3)[GlcNAc(b1-2)Man(a1-6)]Man(b1-4)GlcNAc(b1-4)GlcNAc
# How it was run: as §1
# [12] = target: GlcNAc(b1-2)Man(a1-3)[GlcNAc(b1-2)Man(a1-6)]Man(b1-4)GlcNAc(b1-4)[Fuc(a1-6)]GlcNAc
# How it was run: as §1
# GlcNAc(b1-3)Gal = target: GlcNAc(b1-3)Gal
# How it was run: as §1
# [13] = target: GlcNAc(b1-3)Gal(b1-3)GalNAc
# How it was run: as §1
# GlcNAc(b1-3)Gal(b1-4)Glc = target: GlcNAc(b1-3)Gal(b1-4)Glc
# How it was run: as §1
# [14] = target: GlcNAc(b1-3)Gal(b1-4)GlcNAc
# How it was run: as §1
# [15] = target: GlcNAc(b1-3)Gal(b1-4)GlcNAc(b1-3)Gal(b1-4)GlcNAc
# How it was run: as §1
# GlcNAc(b1-3)GalNAc = target: GlcNAc(b1-3)GalNAc
# How it was run: as §1
# GlcNAc(b1-3)Man = target: GlcNAc(b1-3)Man
# How it was run: as §1
# [16] = target: GlcNAc(b1-3)[GlcNAc(b1-4)][GlcNAc(b1-6)]GlcNAc
# How it was run: as §1
# [17] = target: GlcNAc(b1-3)[GlcNAc(b1-6)]Gal(b1-4)GlcNAc
# How it was run: as §1
# [18] = target: GlcNAc(b1-3)[GlcNAc(b1-6)]GalNAc
# How it was run: as §1
# [19] = target: GlcNAc(b1-4)Gal(b1-4)GlcNAc
# How it was run: as §1
# GlcNAc(b1-4)GlcNAc = target: GlcNAc(b1-4)GlcNAc
# How it was run: as §1
# [20] = target: GlcNAc(b1-4)GlcNAc(b1-4)GlcNAc
# How it was run: as §1
# [21] = target: GlcNAc(b1-4)GlcNAc(b1-4)GlcNAc(b1-4)GlcNAc(b1-4)GlcNAc
# How it was run: as §1
# [22] = target: GlcNAc(b1-4)GlcNAc(b1-4)GlcNAc(b1-4)GlcNAc(b1-4)GlcNAc(b1-4)GlcNAc
# How it was run: as §1
# [23] = target: GlcNAc(b1-4)[GlcNAc(b1-6)]GalNAc
# How it was run: as §1
# [24] = target: GlcNAc(b1-6)Gal(b1-4)GlcNAc
# How it was run: as §1
# GlcNAc(b1-6)GalNAc = target: GlcNAc(b1-6)GalNAc
# How it was run: as §1
# GlcNAc3Prop(b1-4)GlcNAc = target: GlcNAc3Prop(b1-4)GlcNAc
# How it was run: as §1
# [25] = target: GlcNAc6S(b1-3)Gal(b1-4)GlcNAc
# How it was run: as §1
# Kdn(a2-3)Gal(b1-3)GalNAc = target: Kdn(a2-3)Gal(b1-3)GalNAc
# How it was run: as §1
# Kdn(a2-3)Gal(b1-3)GlcNAc = target: Kdn(a2-3)Gal(b1-3)GlcNAc
# How it was run: as §1
# Kdn(a2-3)Gal(b1-4)Glc = target: Kdn(a2-3)Gal(b1-4)Glc
# How it was run: as §1
# Kdn(a2-3)Gal(b1-4)GlcNAc = target: Kdn(a2-3)Gal(b1-4)GlcNAc
# How it was run: as §1
# [26] = target: Kdn(a2-3)Gal(b1-4)[Fuc(a1-3)]GlcNAc
# How it was run: as §1
# Kdn(a2-6)Gal(b1-4)GlcNAc = target: Kdn(a2-6)Gal(b1-4)GlcNAc
# How it was run: as §1
# [27] = target: Man(a1-2)Man(a1-2)Man(a1-3)Man
# How it was run: as §1
# [28] = target: Man(a1-2)Man(a1-2)Man(a1-6)[Man(a1-3)]Man
# How it was run: as §1
# Man(a1-2)Man(a1-3)Man = target: Man(a1-2)Man(a1-3)Man
# How it was run: as §1
# [29] = target: Man(a1-2)Man(a1-3)[Man(a1-2)Man(a1-6)]Man
# How it was run: as §1
# [30] = target: Man(a1-2)Man(a1-3)[Man(a1-2)Man(a1-6)]Man(a1-6)[Man(a1-2)Man(a1-2)Man(a1-3)]Man
# How it was run: as §1
# [31] = target: Man(a1-2)Man(a1-3)[Man(a1-2)Man(a1-6)]Man(a1-6)[Man(a1-2)Man(a1-2)Man(a1-3)]Man(b1-4)GlcNAc(b1-4)GlcNAc
# How it was run: as §1
# [32] = target: Man(a1-2)Man(a1-3)[Man(a1-6)]Man(a1-6)[Man(a1-2)Man(a1-3)]Man(b1-4)GlcNAc(b1-4)GlcNAc
# How it was run: as §1
# [33] = target: Man(a1-2)Man(a1-6)[Man(a1-3)]Man(a1-6)[Man(a1-2)Man(a1-2)Man(a1-3)]Man
# How it was run: as §1
# [34] = target: Man(a1-2)Man(a1-6)[Man(a1-3)]Man(a1-6)[Man(a1-2)Man(a1-2)Man(a1-3)]Man(b1-4)GlcNAc(b1-4)GlcNAc
# How it was run: as §1
# Man(a1-3)[Man(a1-6)]Man = target: Man(a1-3)[Man(a1-6)]Man
# How it was run: as §1
# [35] = target: Man(a1-3)[Man(a1-6)]Man(a1-6)[Man(a1-2)Man(a1-3)]Man(b1-4)GlcNAc(b1-4)GlcNAc
# How it was run: as §1
# [36] = target: Man(a1-3)[Man(a1-6)]Man(a1-6)[Man(a1-3)]Man
# How it was run: as §1
# [37] = target: Man(a1-3)[Man(a1-6)]Man(a1-6)[Man(a1-3)]Man(b1-4)GlcNAc(b1-4)GlcNAc
# How it was run: as §1
# [38] = target: Man(a1-3)[Man(a1-6)]Man(b1-4)GlcNAc(b1-4)GlcNAc
# How it was run: as §1
# Man(a1-6)Man = target: Man(a1-6)Man
# How it was run: as §1
binder,measurement,setting,value
B1,glycan array binding signal (z-score),Glc(a1-4)Glc,-0.033
same,glycan array binding signal (z-score),Glc(a1-6)Glc(a1-6)Glc,0.42
same,glycan array binding signal (z-score),Glc(b1-4)Glc,-0.215
same,glycan array binding signal (z-score),Glc(b1-6)Glc,-0.281
same,glycan array binding signal (z-score),GlcA(b1-3)Gal,-0.349
same,glycan array binding signal (z-score),GlcA(b1-3)GlcNAc,0.597
same,glycan array binding signal (z-score),GlcA(b1-6)Gal,-0.24
same,glycan array binding signal (z-score),[1],-0.688
same,glycan array binding signal (z-score),[2],0.121
same,glycan array binding signal (z-score),[3],1.87
same,glycan array binding signal (z-score),[4],0.255
same,glycan array binding signal (z-score),[5],4.14
same,glycan array binding signal (z-score),[6],4.58
same,glycan array binding signal (z-score),[7],-0.586
same,glycan array binding signal (z-score),[8],8.99
same,glycan array binding signal (z-score),[9],-0.411
same,glycan array binding signal (z-score),[10],-0.147
same,glycan array binding signal (z-score),[11],-0.568
same,glycan array binding signal (z-score),[12],1.27
same,glycan array binding signal (z-score),GlcNAc(b1-3)Gal,-0.31
same,glycan array binding signal (z-score),[13],0.142
same,glycan array binding signal (z-score),GlcNAc(b1-3)Gal(b1-4)Glc,0.077
same,glycan array binding signal (z-score),[14],-0.582
same,glycan array binding signal (z-score),[15],-0.366
same,glycan array binding signal (z-score),GlcNAc(b1-3)GalNAc,-0.632
same,glycan array binding signal (z-score),GlcNAc(b1-3)Man,0.937
same,glycan array binding signal (z-score),[16],-0.346
same,glycan array binding signal (z-score),[17],-0.028
same,glycan array binding signal (z-score),[18],-0.455
same,glycan array binding signal (z-score),[19],-0.539
same,glycan array binding signal (z-score),GlcNAc(b1-4)GlcNAc,-0.051
same,glycan array binding signal (z-score),[20],-0.402
same,glycan array binding signal (z-score),[21],-0.61
same,glycan array binding signal (z-score),[22],-0.455
same,glycan array binding signal (z-score),[23],-0.36
same,glycan array binding signal (z-score),[24],-0.384
same,glycan array binding signal (z-score),GlcNAc(b1-6)GalNAc,-0.132
same,glycan array binding signal (z-score),GlcNAc3Prop(b1-4)GlcNAc,-0.616
same,glycan array binding signal (z-score),[25],-0.523
same,glycan array binding signal (z-score),Kdn(a2-3)Gal(b1-3)GalNAc,-0.484
same,glycan array binding signal (z-score),Kdn(a2-3)Gal(b1-3)GlcNAc,-0.378
same,glycan array binding signal (z-score),Kdn(a2-3)Gal(b1-4)Glc,-0.129
same,glycan array binding signal (z-score),Kdn(a2-3)Gal(b1-4)GlcNAc,-0.418
same,glycan array binding signal (z-score),[26],0.774
same,glycan array binding signal (z-score),Kdn(a2-6)Gal(b1-4)GlcNAc,-0.601
same,glycan array binding signal (z-score),[27],-0.489
same,glycan array binding signal (z-score),[28],-0.492
same,glycan array binding signal (z-score),Man(a1-2)Man(a1-3)Man,-0.199
same,glycan array binding signal (z-score),[29],-0.288
same,glycan array binding signal (z-score),[30],-0.59
same,glycan array binding signal (z-score),[31],0.009
same,glycan array binding signal (z-score),[32],-0.331
same,glycan array binding signal (z-score),[33],-0.606
same,glycan array binding signal (z-score),[34],-0.456
same,glycan array binding signal (z-score),Man(a1-3)[Man(a1-6)]Man,-0.358
same,glycan array binding signal (z-score),[35],-0.146
same,glycan array binding signal (z-score),[36],-0.465
same,glycan array binding signal (z-score),[37],-0.397
same,glycan array binding signal (z-score),[38],-0.309
same,glycan array binding signal (z-score),Man(a1-6)Man,0.115

# Reference: the supplement of paper PMC8728848
